Source: the RNAGym collection of RNA variant scans (doi:10.7554/elife.90254)
The source gives no read counts; variants with many changes may rest on few reads.

B1: LINE1-full (parent)
chain: UACGUAGGUGGUUUUCCCCUGAUAGUGCUAAGGGGGCCUGGAAGUUUGGACUGGGCAGAGCUCAACACAGCGUGGCAAAGUGGCUGUGGCUAGACUGCCUCUCUGGAUUCCUCGUCACUCAGCAGGGCAUCUCUGAGAGAAAUGCC

Variants of: B1
Test: self-cleavage, relative activity (ratio to wild type); higher = more cleavage; in vitro, sequencing; the parent is a self-cleaving ribozyme

| Variant | self-cleavage |
| --- | --- |
| A31U U46C A57U A65G U73A A79G A138G | 0 |
| G32C U52A G72U | 1.03 |
| A31U A78G U104A | 0.84 |
| G33A A57C U130C A138G | 0.16 |
| A31G U47C A57G A64U U109C | 1 |
| A31U U47A U102C A141G | 1.69 |
| A31U A43G U45G G88A | 0.03 |
| A31U A65G A124U | 0.06 |
| A31U U73G A117U U119C A140G | 1.7 |
| A31G A67U A69G G83C A107G | 0 |
| G32U U73A U104C U134C | 1.75 |
| A31U G53A U96G U143A | 0.06 |
| A31U A65G A78G A138G | 0.54 |
| G32C G41U U87A U108C A142G | 0.15 |
| A31U C51U U104C G126U | 0.63 |
| A31G A94U G144A | 0.14 |
| G33U A94G U104C U115C | 0 |
| A31G A92U U112C A129G U143A | 0.94 |
| A31U A43U U47C A65G U81G | 0 |
| G32U U52C G70A A107G | 0.09 |
| G33A A57U U62C A136G | 0.12 |
| A31U A117G A136U | 0.66 |
| A31U U104A A142G | 1.23 |
| A31U C101U A136G | 1.25 |

| Variant | self-cleavage |
| --- | --- |
| A31G A124G A142G U143A | 1.05 |
| A31U A57U A107U | 0.23 |
| G32A A64C U134C | 0.32 |
| A31U A43G U52A A94G | 0.39 |
| A31G A94G U115C | 0.77 |
| G33A U119A G135A | 1.5 |
| G32A U87C A92G G137U | 0.27 |
| A31U A79G U132A | 1.31 |
| G32A G34A A67G U104A A141G | 0.31 |
| A31G A94G U132A | 0.27 |
| G32A U47C G60A U130C A141G | 0.04 |
| A31G U52C A121U U130C | 0 |
| G32U U47C U100A A124G | 1.23 |
| G32A A77G A138U | 1.41 |
| G33A G89A A141G | 0.06 |
| A31G G40A U52C | 1.63 |
| A31U U85A U100C U108C A138G | 0 |
| A31U G54A U100C | 0.5 |
| A31U A65G U102C | 0 |
| G32A A77G A78G | 0.61 |
| G32A U96C U119C | 0.26 |
| A31G C84U U104C C113U | 0.09 |
| A31U G75C U115A A121G A129G | 1.02 |
| A31U A43G A129U | 0.94 |

| Variant | self-cleavage |
| --- | --- |
| A31U C66U A78G | 0.06 |
| G32C U47C U104C | 1.11 |
| A31U U39C A69G G97A U104G | 0.1 |
| G32A C38U G74A U91C U102C | 0.39 |
| A31G G34A U52C A141G | 1.03 |
| A31G A94U A124U | 0.16 |
| G32C U87C C99U U134C | 0.26 |
| G32C U47A A50U A59G A77G U109A A121U | 0.17 |
| G32U G105A U119C U132C | 1.47 |
| G33A G82U A138G | 2.02 |
| A31U A69U A121G | 0.12 |
| A31G U104C A124U U143C | 0.98 |
| A31U U39C G40C U108C A136G | 0 |
| A31U A69U U100C C111A A142G | 0.06 |
| G32U G36A A64U | 0.46 |
| A31U U47C U87A | 0.09 |
| G32U U81A A94G U115A | 0.31 |
| A31G U108A U112C | 1.46 |
| G32C C61U U134A | 0 |
| G33A C76U A129G | 2.3 |
| A31G U47A U52C | 0.61 |
| A31U U130A A141C | 1.26 |
| A31G A94G U100C | 0.71 |
| A31G A78G A129U | 2.3 |

| Variant | self-cleavage |
| --- | --- |
| A31G U119C A124G | 0 |
| A31G G86A U96C | 0 |
| A31U A42G G74U | 1.13 |
| G32U A117U A142C | 1.36 |
| A31U A64G U134A | 0.29 |
| A31U A57G U87C | 1.02 |
| A31G G36U A43U | 0.86 |
| G32A C51A A94G A142G | 0.11 |
| G32A U47C A67U U91C A140G | 0 |
| G33A A50G U91C A92G | 0.24 |
| G32C G89A U108C U112A | 0.04 |
| G32A U47C U62C A79G | 0.06 |
| A31G A78G U119A | 1.53 |
| A31U C37G U52C A59G A117G A141C | 0 |
| G32U U45G U73A A78U U85C | 0.12 |
| A31U U52C A69U G82A A136U | 0.06 |
| A31G U47A A117G C131A | 1.56 |
| A31G U112C U132A | 0.99 |
| A31G U47C G125U | 1.38 |
| G33A U73C U108C | 1.31 |
| G33A U112A A140G | 0.96 |
| G33U A64U U130G | 0.45 |
| G32A U47A G55A U96G C116U U134C A142G | 0.01 |
| A31G U73A U81C G88U | 0 |

| Variant | self-cleavage |
| --- | --- |
| G32A A92C G106A A117C | 0.11 |
| A31U A42U G72A | 1.12 |
| G32U U46A A136U | 1.17 |
| A31U G58U U91C A94G | 0.09 |
| A31G U73C U87A A124U U143A | 0.13 |
| G32A A67U U115C | 0.13 |
| A31G A78G U109G | 1.71 |
| A31G U47A U130C | 0.95 |
| A31U G35U U39C A50G A141G | 0.15 |
| G32A G36A A69G U73C G93U | 0.03 |
| G32A U39C U73A U100A | 0.43 |
| G32A C120U A138G | 1.4 |
| G33A U115A A129G | 0.97 |
| A31G U39C U104A A121U | 0.32 |
| G32A U46C A140G | 0.92 |
| G33A U47A A124G | 0.74 |
| G33U A77U U134C | 0.99 |
| A31G A67U A69U | 0.08 |
| A31U U104A U108C | 1.34 |
| A31U A59G A69G G139U | 0.29 |
| G33A A59U A92G | 0.04 |
| A31U U62C U96A | 0.04 |
| G32C U102C A142G | 2.9 |
| A31G U46A U115A | 0.24 |

| Variant | self-cleavage |
| --- | --- |
| A31U A129G G135U | 0.78 |
| G33A A124G A136U | 1.53 |
| A31U U45C A117G U132A A141G | 1.44 |
| G33U A67G U112A U115C | 0.27 |
| G33A U45C A141G | 1.2 |
| A31G U91C A94U | 0.27 |
| G32A A64U A67U A79G A124G | 0.04 |
| G33A G34A A67G U112A | 0.53 |
| G32A A50G A77U G83U G139A | 0.25 |
| G32A G74A U132C | 1.2 |
| A31U G114U A142G | 0.73 |
| G33U A42G A124U | 1.08 |
| G33A U109G C110U | 0.72 |
| G33U A94G A121U | 0.22 |
| A31G A65U U115C U130A | 0.37 |
| G32U A57G A78G | 0.25 |
| A31G G33U C99U | 0.61 |
| A31G G32A G44A G74A U119C U130C | 1.5 |
| G32A A50G C133A U134C | 0.96 |
| G33A A57U A65U A107C U115C | 0.08 |
| A31U A79G A124G | 0 |
| A31G A94U U104A U115A A136G | 0.44 |
| A31G U46C A57G | 0.41 |
| G32A C131U U134C | 0.96 |

| Variant | self-cleavage |
| --- | --- |
| G33A A78G U85C A136U A140U | 0.12 |
| A31U A78G U115C | 2.3 |
| A31U A64U U108C U134C | 1.01 |
| G32A U109A U132C | 1.1 |
| A31U A43G A67U A79G | 0.32 |
| A31G U62A U73A U91C U104A | 0.17 |
| G33A A69U A117C U132C | 0 |
| A31U A94G U112C | 0.32 |
| A31G U39C G114A | 1.49 |
| G33A A43G G53C G86A | 0.08 |
| G32U A77G U102C | 1.49 |
| G32A U45C A140G | 0.68 |
| A31U U39C A59U U73A A77G A141G | 1.67 |
| A31U U81C U143C | 1.09 |
| G32C A79G G83A U85C | 0.12 |
| A31G C68A A142G | 0.02 |
| G32A A141G U143C | 2.22 |
| A31G G35U A79G A94G G125U A136G | 0.32 |
| A31U A43G A78G | 1.49 |
| G32A C66U U73C U100C U132C | 0.1 |
| G33C U102C A117G | 0.51 |
| G32A A50G A129G | 0.89 |
| A31U A42G U96C | 0.14 |
